Results on four sequences are retold here after the supplement of paper PMC12230231.

± gives the standard deviation of the averaged measurements. Restriction of a single-cycle SIVsab GFP reporter by TRIM5α v1-loop variants in CRFK cells. Human variants: read share among cells still uninfected after two challenges over input, higher = gained restriction. Rhesus variants: share among infected cells over input, higher = lost restriction. Reporter dose not given per row. No active / inactive call per row; the paper calls a change when both replicates lie above its controls (mean + 2 SD of stop or wild-type variants, or the top frameshift score). Residues outside the varied loop are taken from Swiss-Prot. The paper reads the human single-substitution scores as noise; they and the rhesus combinations repeat poorly (rank correlation 0.3 to 0.4), indel scores repeat only for the top variants, rhesus substitutions well (0.9).

In the data set the test system is SIVsab (simian immunodeficiency virus of sabaeus monkeys), single-cycle GFP reporter, in CRFK cells. The experiment in a line: enrichment among uninfected cells over input (fold); higher = stronger restriction. The conditions noted are these: library: human / rhesus combinations. The procedure: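 Pools of CRFK cells expressing variants of the TRIM5α v1 loop were challenged with the single-cycle reporter, sorted by GFP and sequenced; mean of two replicates.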
For the sequence “MASGILVNVKEEVTCPICLELLTQPLSLDCGHSFCQACLTANHKKSMLDKGESSCPVCRISYQPENIRPNRHVANIVEKLREVKLSPEGQKVDHCARHGEKLLLFCQEDGKVICWLCERSQEHRGHHTFLTEEVAREYQVKLQAALEMLRQKQQEAEELEADIREEKASWKTQIQYDKTNVLADFEQLRDILDWEESNELQNLEKEEEDILKSLTNSETEMVQQTQSLRELISDLEHRLQGSVMELLQGVDGVIKRTENVTLKKPETFPKNQRRVFRAPDLKGMLEVFRELTDVRRYWVDVTVAPNNISCAVISEDKRQVSSPKPQIIYQAPGTRFPSFVNFNYCTGILGSQSITSGKHYWEVDVSKKTAWILGVCAGFQPDAMCNIEKNENYQPKYGYWVIGLEEGVKCSAFQDSSFHTPSVPFIVPLSVIICPDRVGVFLDYEACTVSFFNITNHGFLIYKFSHCSFSQPVFPYLNPRKCGVPMTLCSPSS [human TRIM5α, 330-340 = QAPGTRFPSFV]”, the enrichment stood at 0.487 ± 0.16.

Regarding “MASGILVNVKEEVTCPICLELLTQPLSLDCGHSFCQACLTANHKKSMLDKGESSCPVCRISYQPENIRPNRHVANIVEKLREVKLSPEGQKVDHCARHGEKLLLFCQEDGKVICWLCERSQEHRGHHTFLTEEVAREYQVKLQAALEMLRQKQQEAEELEADIREEKASWKTQIQYDKTNVLADFEQLRDILDWEESNELQNLEKEEEDILKSLTNSETEMVQQTQSLRELISDLEHRLQGSVMELLQGVDGVIKRTENVTLKKPETFPKNQRRVFRAPDLKGMLEVFRELTDVRRYWVDVTVAPNNISCAVISEDKRQVSSPKPQIIYQAPGTRFPSLVNFNYCTGILGSQSITSGKHYWEVDVSKKTAWILGVCAGFQPDAMCNIEKNENYQPKYGYWVIGLEEGVKCSAFQDSSFHTPSVPFIVPLSVIICPDRVGVFLDYEACTVSFFNITNHGFLIYKFSHCSFSQPVFPYLNPRKCGVPMTLCSPSS [human TRIM5α, 330-340 = QAPGTRFPSLV]”, the enrichment is 0.00362 ± 0.0018. Turning to “MASGILVNVKEEVTCPICLELLTQPLSLDCGHSFCQACLTANHKKSMLDKGESSCPVCRISYQPENIRPNRHVANIVEKLREVKLSPEGQKVDHCARHGEKLLLFCQEDGKVICWLCERSQEHRGHHTFLTEEVAREYQVKLQAALEMLRQKQQEAEELEADIREEKASWKTQIQYDKTNVLADFEQLRDILDWEESNELQNLEKEEEDILKSLTNSETEMVQQTQSLRELISDLEHRLQGSVMELLQGVDGVIKRTENVTLKKPETFPKNQRRVFRAPDLKGMLEVFRELTDVRRYWVDVTVAPNNISCAVISEDKRQVSSPKPQIIYQAPGTRFPTLVNFNYCTGILGSQSITSGKHYWEVDVSKKTAWILGVCAGFQPDAMCNIEKNENYQPKYGYWVIGLEEGVKCSAFQDSSFHTPSVPFIVPLSVIICPDRVGVFLDYEACTVSFFNITNHGFLIYKFSHCSFSQPVFPYLNPRKCGVPMTLCSPSS [human TRIM5α, 330-340 = QAPGTRFPTLV]”, the enrichment was determined as 1.23 ± 1.2. To “MASGILVNVKEEVTCPICLELLTQPLSLDCGHSFCQACLTANHKKSMLDKGESSCPVCRISYQPENIRPNRHVANIVEKLREVKLSPEGQKVDHCARHGEKLLLFCQEDGKVICWLCERSQEHRGHHTFLTEEVAREYQVKLQAALEMLRQKQQEAEELEADIREEKASWKTQIQYDKTNVLADFEQLRDILDWEESNELQNLEKEEEDILKSLTNSETEMVQQTQSLRELISDLEHRLQGSVMELLQGVDGVIKRTENVTLKKPETFPKNQRRVFRAPDLKGMLEVFRELTDVRRYWVDVTVAPNNISCAVISEDKRQVSSPKPQIIYQAPGTRFQSFVNFNYCTGILGSQSITSGKHYWEVDVSKKTAWILGVCAGFQPDAMCNIEKNENYQPKYGYWVIGLEEGVKCSAFQDSSFHTPSVPFIVPLSVIICPDRVGVFLDYEACTVSFFNITNHGFLIYKFSHCSFSQPVFPYLNPRKCGVPMTLCSPSS [human TRIM5α, 330-340 = QAPGTRFQSFV]” belongs 0.546 ± 0.74.
